Results: the RNAGym collection of RNA variant scans (doi:10.7554/elife.90254)
Read counts are not given, so values of variants with three or more changes are uncertain.

B1: LINE1-mini (parent)
chain: GGCAGAGCUCAACACAGCGUGGCAAAGUGGCUGUGGCUAGACUGCC

Variants of: B1
Assay: self-cleavage, relative activity (ratio to wild type); higher = more cleavage; in vitro, sequencing; the parent is a self-cleaving ribozyme
Work on A6G U28C C42U U43C yielded a self-cleavage of 0.03. For G2A G7C C10A C31U A39G C42A, the self-cleavage was 0.08. G29U U34A C45G showed a self-cleavage of 0.12. C8G A24U A25C A39U showed a self-cleavage of 0.01. In the case of G2A C10A U20C C42G, the self-cleavage is reported as 0.02. A6C A14U U20A A24U A25U G27C showed a self-cleavage of 0.38. In the case of G5U C10A C23U C37U A39G, the self-cleavage is reported as 0.01. With C3U U28C C31A U38A the self-cleavage was 0.26. In the case of C8G C13A U34A, the self-cleavage is reported as 0.14. G17U G35C A41G showed a self-cleavage of 0.13. For G2A C3G C18A A25C U38G, the self-cleavage was 0.1. Variant A16U C23A A25C has a self-cleavage of 0.04. In the case of G7U C8A A16C, the self-cleavage is reported as 0.04. Variant A12G A16G G35U has a self-cleavage of 0.04. In the case of C3U C8U G19U C23U A25C C37U, the self-cleavage is reported as 0.07. A4C G5U C31A G40A C42U gave a self-cleavage of 0.08. Variant G1A G7A A16C G19A C31U has a self-cleavage of 1.5. G1A G2U G21A showed a self-cleavage of 0.62. Variant A6G U9A G22C U38C A41C has a self-cleavage of 0.01. In the case of C8A G17U C23G U43A, the self-cleavage is reported as 0.41. G2U C10U G19A U20A A41C showed a self-cleavage of 0. G5A C8U G21C A24G A25G A41C gave a self-cleavage of 0.19. Work on G17C G21U U38G A41U yielded a self-cleavage of 0.03. In the case of C3U C18A G19C G22A, the self-cleavage is reported as 0.33. For G1A G2C U9G C10G C23U, the self-cleavage was 0. Variant A11U G17U G33U U38A has a self-cleavage of 0.02. Variant C3U A4C A11U G21U G22A U28A G35A has a self-cleavage of 0.02. A24G U28A G30C showed a self-cleavage of 0.33. Variant C15U G44U C45A has a self-cleavage of 0.07. Work on U9A C18G G22U U32C G44A yielded a self-cleavage of 0.04. C3G C8U U20A G22A showed a self-cleavage of 0.28. With C3U G19C G33A G40U the self-cleavage was 0.03. For C3G G21A G27U U28C G33U C45G C46G, the self-cleavage was 0.02. U9G G19U U20C C23U A26G gave a self-cleavage of 0.04. Variant A6C A25U C31U has a self-cleavage of 0.24. Variant C3U C8A A24C U32C has a self-cleavage of 0.3. For C13A C18A U20G C23A C37U A39U, the self-cleavage was 0.16. C8U A14U G17C gave a self-cleavage of 0.3. A4U C18G U28C U38G showed a self-cleavage of 0.01. Work on A4C G36C U43C C45U yielded a self-cleavage of 0.06. Variant A6C G30C G40A has a self-cleavage of 0.25. For G2A A4G G5U A24G, the self-cleavage was 0.75. C3A G17A A25U showed a self-cleavage of 0.21. In the case of G7U A24G G36C, the self-cleavage is reported as 0.05. G7U A12U G22U C31A G40A showed a self-cleavage of 0.04. In the case of A4C C31A C46U, the self-cleavage is reported as 0.01. Variant C23G U43G G44C has a self-cleavage of 0.05. Variant C3A C8A U20C G35A C42A has a self-cleavage of 0.48. Variant G7C A14U G35C C45U has a self-cleavage of 0.1. G2C G29C G30A U34A gave a self-cleavage of 0.33. With G2U C8U C46G the self-cleavage was 0.03. For G7U A24G A26G C37G U43C, the self-cleavage was 0.01. C3G C8A A14G U34C showed a self-cleavage of 0.06. In the case of A4U A12U G29U, the self-cleavage is reported as 0.1. Variant C8A A12C G19C A39U has a self-cleavage of 0.01. Variant A26G G27A G29U has a self-cleavage of 0.7. Variant G19A U20G G22C A25G U28C C31A has a self-cleavage of 0.08. Work on G2C A14G U32A G33A yielded a self-cleavage of 0.1. For C3A G7U G30A, the self-cleavage was 0.25. Work on C3A A12U G19U G44C yielded a self-cleavage of 0.44. A6G U9G U32G A41U showed a self-cleavage of 0.15. With G1C A16C C18A A25C the self-cleavage was 0. In the case of C3G A4G C10G G29U G33U G40C G44A, the self-cleavage is reported as 0.01. A4C A12U G33U showed a self-cleavage of 0.12. Work on A24C A26C G30C C46U yielded a self-cleavage of 0.07. Variant U9A G27C U28C G29U C46A has a self-cleavage of 0.02. In the case of G2U C3U A6U A11G C13G, the self-cleavage is reported as 0.03. Work on G1C A14U U20A yielded a self-cleavage of 0.08. G1A G2U C31U A41G G44U gave a self-cleavage of 0.02. Work on A4G C8U A11G C13G G29U C31A G40A C42U yielded a self-cleavage of 0. With C8A C10U A25C C37A the self-cleavage was 0.02. With G2C A6G A16G the self-cleavage was 0.06. In the case of G40C A41C G44U, the self-cleavage is reported as 0.59. In the case of G7C G17C U20A U28G C42U, the self-cleavage is reported as 0.01. For G2A C18G U20C U32C U34C, the self-cleavage was 0.04. In the case of C3G G5C C18G U28A G33U, the self-cleavage is reported as 0.06. In the case of C13G G21C A25C U38A, the self-cleavage is reported as 0.13. With G5A C10A C37U the self-cleavage was 0.01. In the case of C18A U20C G40U C42G, the self-cleavage is reported as 0.01. Work on A6C C10U C13A C18G G19C A25C A26C G29C C45A yielded a self-cleavage of 0.01. G1U C23U U38G gave a self-cleavage of 0.02. Variant U9C G27A G29A G30U U38C has a self-cleavage of 0.06. Work on U9A G17A G19A yielded a self-cleavage of 0.05. Work on A16U G40C G44A yielded a self-cleavage of 0.02. Variant A6C G7A C10G C37G has a self-cleavage of 0.02. A11C G33U C46A gave a self-cleavage of 0.02. Variant G7A A39U G40C has a self-cleavage of 0.22. With G17C G22C C45G the self-cleavage was 0.04. A4U G17A G19A G30A A39G showed a self-cleavage of 0.03. Variant G2U U28C A39G has a self-cleavage of 0.02. U9C C15A A16C C23U gave a self-cleavage of 0.04. Work on C3U A16C A24C yielded a self-cleavage of 0.03. C8U G27U G33A gave a self-cleavage of 0.35. C3G U20C G36C gave a self-cleavage of 0.15. In the case of G7C A12U C15U C18A G33C G36C U43C C46A, the self-cleavage is reported as 0.01. Work on C3A C13U C15A G29U G40U yielded a self-cleavage of 0.08. For G21U C31A G35U, the self-cleavage was 0.08. Variant A16C G21A G40C has a self-cleavage of 0.02. Variant G17A G35A G40C C46A has a self-cleavage of 0.11. With U20C C31A G33A G35C the self-cleavage was 0.05. With U20A U34C U38G G40C U43C the self-cleavage was 0.02. C10A G19U A39C C42A showed a self-cleavage of 0.03. Variant C3A C18U G19C U34G has a self-cleavage of 0.03. G1U A6U A14C A25C G44A gave a self-cleavage of 0.02. Work on A16U C18A A26U G44A yielded a self-cleavage of 0.02. Work on C15A U20C G40C yielded a self-cleavage of 0.02. With G7A C8U G17U the self-cleavage was 0.14. In the case of A16C G30U G40C, the self-cleavage is reported as 0.02. In the case of G2A A6G G17C G40A C46G, the self-cleavage is reported as 0.06. Work on G5C C8U U38C A41G yielded a self-cleavage of 0.18. Work on G2C A12G A25U yielded a self-cleavage of 0.03. In the case of C18G G30U G33C U43C, the self-cleavage is reported as 0.03. Variant G7C G30C G36U has a self-cleavage of 0.08. For G2A A6C A16C A26G G30A, the self-cleavage was 0.38. G35U A41U C42G showed a self-cleavage of 0.07. A4G C8G G17A C31A U34C showed a self-cleavage of 0.02. G5U C10A G21U gave a self-cleavage of 0.05. Variant C13A A14U G33U has a self-cleavage of 0.11. Variant G2U C10G A14G C15G has a self-cleavage of 0.02. With G30A G33U G35A the self-cleavage was 0.04. Work on A11C U20A C23A G36C yielded a self-cleavage of 0.01. In the case of G2A A16C A41U, the self-cleavage is reported as 0.1. In the case of C15U U20A G35A, the self-cleavage is reported as 0.06. U9A U28G C42U gave a self-cleavage of 0.04. In the case of G7C G30A U32C, the self-cleavage is reported as 0.01. Work on A6G C8A A39G A41U yielded a self-cleavage of 0.02. Variant C8U G35U A39C U43G C46U has a self-cleavage of 0.05. U9C C18U U20A G27C gave a self-cleavage of 0.01. C8G A25G A26U gave a self-cleavage of 0.02. With C8G A25U A41C the self-cleavage was 0.12. In the case of G1A G30A C31G C45A, the self-cleavage is reported as 0.05. C3U G7U U28G G33C A41U showed a self-cleavage of 0.07. With A12U G21U A24G the self-cleavage was 0.45. For G5A U9G G19C G30A C46U, the self-cleavage was 0.08. With C10U A16G U32C the self-cleavage was 0.05. A4G A6C C23G showed a self-cleavage of 0.02. C3U A16G G17C G36C G40A showed a self-cleavage of 0.01. Work on A4C A26G C46A yielded a self-cleavage of 0.05. In the case of C13U A14C G22U, the self-cleavage is reported as 0.17. C8U C10G C13U C18A C31A A41U showed a self-cleavage of 0.03. In the case of C15G G30C C37U, the self-cleavage is reported as 0.01. In the case of C15U U20G A26G A41G, the self-cleavage is reported as 0.03. Work on A16U G22U G27C U38A yielded a self-cleavage of 0.47. Variant C3A A26G G33A G44U has a self-cleavage of 0.13. With C18A U34A G40A C42G the self-cleavage was 0. G5U G21U C23G C31U gave a self-cleavage of 0.19. For C18G G21C G29U U32C G40A C45A, the self-cleavage was 0. In the case of C8A C37G C42G C46U, the self-cleavage is reported as 0.02. Variant G17A G30U C45U has a self-cleavage of 0.28. In the case of U20A G36C C37U G44C C46U, the self-cleavage is reported as 0.05. With G1U G36A A41G the self-cleavage was 0.07. With G7U C10G A25C the self-cleavage was 0.02. C8A C15A G35C A39G G44U gave a self-cleavage of 0.11. Work on G7U C13A G30U C42A C45U yielded a self-cleavage of 0.03. For A26C G30A G44U, the self-cleavage was 0.03. For A14G G21C G36C A39U, the self-cleavage was 0.05. With G5C A16C C46A the self-cleavage was 0.02. For A11U A12U A25C C46A, the self-cleavage was 0.05. A4U G17U U20G A25C showed a self-cleavage of 0.04. With G22A G35C G40C the self-cleavage was 0.13. G5U U20C G30C showed a self-cleavage of 0. G19C G30A U34C gave a self-cleavage of 0.21. G22C A25C A26G showed a self-cleavage of 0.41. C13U A14G C18G G40A G44C showed a self-cleavage of 0.01. With A14G G17U U20G G29C A41U U43C the self-cleavage was 0.01. A24U G30A G36C showed a self-cleavage of 0.22. For G2U A16C G40U, the self-cleavage was 0.03.
